Source: the supplement of paper PMC7125110
± gives the standard error. Variants at the background level are over-represented here.

B1: glmS ribozyme (parent)
chain: AUAAAAGCGCCAGAACUACAGAAAUGUAGUUGACGAGGAGGAGGUUUAUCGAAUUUUCGGCGGAUGCCUCCAAA

Experiments:
Details in all cases: with glucosamine-6-phosphate
glucosamine-6-phosphate [1] = variants of: B1; assay: self-cleavage kobs at 640 uM GlcN6P; higher = faster cleavage; RNA array
Procedure, shortened: (§1)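 Sequenced MiSeq chips were the platform: E. coli RNA polymerase transcribed barcoded ribozyme variants on them in situ, and a hybridised Cy3 probe tracked these at 37 °C. After glucosamine-6-phosphate (40 μM to 10 mM) in HEPES/KCl/Mg(OAc)2 buffer was flowed in, tiles were imaged over ~14 h. Signals normalised to baseline and to non-cleaving reference variants were reduced to per-tile medians and fit to one- or two-exponential decays to obtain kobs. kcat and KM were derived through weighted Michaelis–Menten fits across concentrations.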

glucosamine-6-phosphate [2] = variants of: B1; assay: self-cleavage kobs at 10000 uM GlcN6P; higher = faster cleavage; RNA array
Procedure, shortened: as §1

glucosamine-6-phosphate [3] = variants of: B1; assay: self-cleavage kobs at 2500 uM GlcN6P; higher = faster cleavage; RNA array
Procedure, shortened: as §1

glucosamine-6-phosphate [4] = variants of: B1; assay: self-cleavage kobs at 160 uM GlcN6P; higher = faster cleavage; RNA array
Procedure, shortened: as §1

| Variant | self-cleavage kobs at 640 uM GlcN6P (glucosamine-6-phosphate [1]) | self-cleavage kobs at 10000 uM GlcN6P (glucosamine-6-phosphate [2]) | self-cleavage kobs at 2500 uM GlcN6P (glucosamine-6-phosphate [3]) | self-cleavage kobs at 160 uM GlcN6P (glucosamine-6-phosphate [4]) |
| --- | --- | --- | --- | --- |
| AUAAAAGCGCCAGAACUACAGAAAUGUAGAUGACGAGGAGGAGGUUUAUCCAAUUUUCGGCGGAUGCCUCCAAA [U30A G51C] | < 1e-05 s⁻¹ | < 1e-05 s⁻¹ |  |  |
| AUAAAAGCGCCAGAACUACAGAAAUGUAGAUGACGAGGAGGAGGUUUGUUGAAUUUUCGGCUGAUGCCUCUAAA [U30A A48G C50U G62U C71U] | < 1e-05 s⁻¹ |  |  |  |
| AUAAAAGCGCCAGAACUACAGAAAUGUAGAUGACGAGGAGGAGGUUUGUCAAAUUUUCGUCGGAUGCCUCCAAA [U30A A48G G51A G60U] | < 1e-05 s⁻¹ |  | < 1e-05 s⁻¹ |  |
| AUAAAAGCGCCAGAACUACAGAAAUGUAGAUGACGAGGAGGAGGUUUCUCUAAUUUUCGGCGGAUGCCUCGAAA [U30A A48C G51U C71G] | < 1e-05 s⁻¹ |  | < 1e-05 s⁻¹ |  |
| AUAAAAGCGCCAGAACUACAGAAAUGUAGCUGAAGAGGAGGAGGUUUAUCGAAUUUUCGGCGGAUGCCUCCAAA [U30C C34A] | < 1e-05 s⁻¹ | < 1e-05 s⁻¹ |  |  |
| AUAAAAGCGCCAGAACUACAGAAAUGUAGAUGACGAGGAGGAUGUUUAUCGAAUAUUCGGCGGAUGCCUCCAAA [U30A G43U U55A] | < 1e-05 s⁻¹ |  | < 1e-05 s⁻¹ | < 1e-05 s⁻¹ |
| AUAAAAGCGCCAGAACUACAGAAAUGUAGCUGACGAGGAGGAGGUUUAUCGAAUUUUCGGGGGAUGCCUCCAAA [U30C C61G] | < 1e-05 s⁻¹ | < 1e-05 s⁻¹ |  |  |
| AUAAAAGCGCCAGAACUACAGAAAUGUAUUUGACGAGGAGGAGCUUUAUCGAAUUUUCGGCGGAUGCUUCCAAA [G29U G44C C68U] | < 1e-05 s⁻¹ |  | < 1e-05 s⁻¹ |  |
| AUAAAAGCGCCAGAACUACAGAAAUGUAUUUGACGAGCAGGGGGUUUAUCGAAUUUUCGGCGGAUGCCUCCAAA [G29U G38C A42G] | < 1e-05 s⁻¹ |  | < 1e-05 s⁻¹ |  |
| AUAAAAGCGCCAGAACUACAGAAAUGUAGAUGACGCGGAGGAGGUUUAUCGAAUUUACGGCGGAUGCCUCCAAA [U30A A36C U57A] | < 1e-05 s⁻¹ |  |  |  |
| AUAAAAGCGCCAGAACUACAGAAAUGUAGCUGACGAGGUGGAGGUUUAUCGUAUUUUCGGCGGAUGCCUCCAAA [U30C A39U A52U] | < 1e-05 s⁻¹ |  |  |  |
| AUAAAAGCGCCAGAACUACAGAAAUGUAGCUAACGAGGAGGAGGUUUAUCGAAUUUUCGGCGGAUGCCUCCAAA [U30C G32A] | 0.000321 ± 4.3e-05 s⁻¹ | 0.00181 ± 0.00026 s⁻¹ | 0.000932 ± 8.8e-05 s⁻¹ | 0.000106 ± 1.2e-05 s⁻¹ |
| AUAAAAGCGCCAGAACUACAGAAAUGUAGCUGACGAGGAGGAGGUUUAUCGAAUUUUCGGCGGAUGUCUCCAAA [U30C C67U] | 3.56e-05 ± 7.9e-06 s⁻¹ | 9.05e-05 ± 1e-05 s⁻¹ | 8.48e-05 ± 1.8e-05 s⁻¹ | 3.33e-05 ± 1.3e-05 s⁻¹ |
| AUAAAAGCGCCAGAACUACAGAAAUGUAUUUGACGAGGAGAAGGUUUAUCGAAUUUACGGCGGAUUCCUCCAAA [G29U G41A U57A G66U] | < 1e-05 s⁻¹ |  | < 1e-05 s⁻¹ | < 1e-05 s⁻¹ |
| AUAAAAGCGCCAGAACUACAGAAAUGUAGAUGACGAGGAGGAGGUCUAUCGUAUUUUCAGCGGAUGCCUCCAAA [U30A U46C A52U G59A] | < 1e-05 s⁻¹ |  | < 1e-05 s⁻¹ | < 1e-05 s⁻¹ |
| AUAAAAGCGCCAGAACUACAGAAAUGUAGAUGACGAGGAGGAGGUUUAUCGAAUUUUCGGCGGAUGGCUCCAAA [U30A C67G] | 5.03e-05 ± 5.9e-06 s⁻¹ | 0.00015 ± 1.3e-05 s⁻¹ | 9.16e-05 ± 8.4e-06 s⁻¹ |  |
